Among the data in paper PMC11358291 are binding values, retold here.

Chains of the proteins cited; added tags and fusions are not shown.
UniProt P27986: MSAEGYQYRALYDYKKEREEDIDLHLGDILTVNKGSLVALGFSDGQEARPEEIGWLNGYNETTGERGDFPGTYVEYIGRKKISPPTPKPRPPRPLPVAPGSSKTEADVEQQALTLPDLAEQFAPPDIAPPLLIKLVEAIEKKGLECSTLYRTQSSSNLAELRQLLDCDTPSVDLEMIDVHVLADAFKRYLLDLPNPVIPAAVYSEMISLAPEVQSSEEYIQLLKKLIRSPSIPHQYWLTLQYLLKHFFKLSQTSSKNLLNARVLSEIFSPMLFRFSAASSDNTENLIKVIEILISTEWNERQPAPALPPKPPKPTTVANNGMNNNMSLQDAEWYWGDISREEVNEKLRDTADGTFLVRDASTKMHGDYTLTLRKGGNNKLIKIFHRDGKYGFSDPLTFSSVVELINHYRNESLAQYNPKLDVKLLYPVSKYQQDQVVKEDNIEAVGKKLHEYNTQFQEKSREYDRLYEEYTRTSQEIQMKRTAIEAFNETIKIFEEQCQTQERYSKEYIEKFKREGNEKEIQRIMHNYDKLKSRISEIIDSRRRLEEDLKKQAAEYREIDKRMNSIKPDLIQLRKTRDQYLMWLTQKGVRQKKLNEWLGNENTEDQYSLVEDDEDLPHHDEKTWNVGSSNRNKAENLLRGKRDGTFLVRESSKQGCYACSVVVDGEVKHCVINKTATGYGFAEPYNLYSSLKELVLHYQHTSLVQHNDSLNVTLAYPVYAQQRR
UniProt Q13283: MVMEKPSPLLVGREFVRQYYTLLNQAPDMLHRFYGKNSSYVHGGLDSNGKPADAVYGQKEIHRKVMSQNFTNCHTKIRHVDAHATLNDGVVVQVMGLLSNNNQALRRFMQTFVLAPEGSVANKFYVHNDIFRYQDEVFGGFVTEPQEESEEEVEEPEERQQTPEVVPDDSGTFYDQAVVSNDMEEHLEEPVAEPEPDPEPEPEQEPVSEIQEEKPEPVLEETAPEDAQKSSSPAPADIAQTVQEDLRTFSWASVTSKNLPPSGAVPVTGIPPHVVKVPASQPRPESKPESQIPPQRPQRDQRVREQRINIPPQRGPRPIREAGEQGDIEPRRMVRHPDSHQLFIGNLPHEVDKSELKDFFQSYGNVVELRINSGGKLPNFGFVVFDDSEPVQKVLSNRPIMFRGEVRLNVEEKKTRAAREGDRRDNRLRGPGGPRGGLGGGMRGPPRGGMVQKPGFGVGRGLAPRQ
UniProt P42336: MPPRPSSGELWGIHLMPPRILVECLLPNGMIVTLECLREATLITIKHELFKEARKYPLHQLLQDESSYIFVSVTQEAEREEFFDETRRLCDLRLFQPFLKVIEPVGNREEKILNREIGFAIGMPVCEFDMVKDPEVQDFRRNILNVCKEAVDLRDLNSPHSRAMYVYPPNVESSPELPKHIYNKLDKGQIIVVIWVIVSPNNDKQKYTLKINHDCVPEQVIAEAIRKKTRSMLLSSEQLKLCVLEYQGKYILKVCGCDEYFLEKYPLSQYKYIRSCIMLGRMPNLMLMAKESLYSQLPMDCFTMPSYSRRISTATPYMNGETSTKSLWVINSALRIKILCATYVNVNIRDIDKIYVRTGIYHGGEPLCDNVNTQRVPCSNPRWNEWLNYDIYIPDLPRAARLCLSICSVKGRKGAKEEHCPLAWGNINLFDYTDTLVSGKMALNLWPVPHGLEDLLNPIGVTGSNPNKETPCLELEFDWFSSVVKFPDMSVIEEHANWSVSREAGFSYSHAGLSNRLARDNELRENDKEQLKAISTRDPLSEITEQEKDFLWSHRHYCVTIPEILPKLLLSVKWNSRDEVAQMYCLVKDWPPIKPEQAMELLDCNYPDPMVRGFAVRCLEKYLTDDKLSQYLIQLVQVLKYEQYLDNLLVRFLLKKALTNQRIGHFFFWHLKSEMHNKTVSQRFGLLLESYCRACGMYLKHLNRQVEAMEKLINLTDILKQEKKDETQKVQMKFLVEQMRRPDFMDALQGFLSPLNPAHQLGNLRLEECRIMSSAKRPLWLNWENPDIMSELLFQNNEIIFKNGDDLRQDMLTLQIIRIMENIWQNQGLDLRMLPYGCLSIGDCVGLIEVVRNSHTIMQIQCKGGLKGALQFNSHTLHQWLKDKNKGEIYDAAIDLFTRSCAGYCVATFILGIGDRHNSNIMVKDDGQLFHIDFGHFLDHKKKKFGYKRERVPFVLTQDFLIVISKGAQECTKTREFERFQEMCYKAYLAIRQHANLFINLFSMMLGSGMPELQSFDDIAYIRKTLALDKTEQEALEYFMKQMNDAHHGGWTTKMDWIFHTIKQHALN
UniProt Q99873: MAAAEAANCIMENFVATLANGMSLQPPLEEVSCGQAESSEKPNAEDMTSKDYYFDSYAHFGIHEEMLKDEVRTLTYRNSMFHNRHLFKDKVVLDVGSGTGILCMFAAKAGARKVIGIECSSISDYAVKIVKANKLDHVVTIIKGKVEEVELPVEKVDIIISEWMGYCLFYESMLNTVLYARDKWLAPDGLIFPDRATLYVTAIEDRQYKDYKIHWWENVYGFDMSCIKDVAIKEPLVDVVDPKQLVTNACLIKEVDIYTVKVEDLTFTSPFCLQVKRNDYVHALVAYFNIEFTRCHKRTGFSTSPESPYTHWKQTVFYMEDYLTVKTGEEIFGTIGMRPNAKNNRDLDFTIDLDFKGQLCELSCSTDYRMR
UniProt P11940: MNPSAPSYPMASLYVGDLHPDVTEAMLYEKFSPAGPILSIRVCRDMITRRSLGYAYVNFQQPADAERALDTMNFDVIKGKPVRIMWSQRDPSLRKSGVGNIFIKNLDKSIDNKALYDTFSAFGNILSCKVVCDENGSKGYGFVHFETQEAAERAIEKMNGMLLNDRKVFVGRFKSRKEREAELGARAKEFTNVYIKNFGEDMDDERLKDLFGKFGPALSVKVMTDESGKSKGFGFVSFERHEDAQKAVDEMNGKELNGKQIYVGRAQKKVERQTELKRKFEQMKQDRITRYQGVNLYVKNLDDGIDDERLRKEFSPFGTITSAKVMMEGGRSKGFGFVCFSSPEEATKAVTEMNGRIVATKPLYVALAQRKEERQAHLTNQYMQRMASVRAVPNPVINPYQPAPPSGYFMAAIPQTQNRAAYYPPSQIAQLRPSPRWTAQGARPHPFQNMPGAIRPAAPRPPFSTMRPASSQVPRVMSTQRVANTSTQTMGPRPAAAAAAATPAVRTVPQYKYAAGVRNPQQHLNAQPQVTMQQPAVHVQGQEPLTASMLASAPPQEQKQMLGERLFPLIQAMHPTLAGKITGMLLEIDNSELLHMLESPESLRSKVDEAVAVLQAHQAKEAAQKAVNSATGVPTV

Results are given in words; binding and its absence hold for the method and conditions named. For part of these data: Binding seen in cells or lysates may run through a third protein. Some entries that bind do so weakly or less than the wild type.

One experiment deals with HA-p85α (UniProt P27986). Description: co-IP; HEK293T cells co-transfected with a Flag-tagged and an HA-tagged protein; IP with anti-Flag or anti-HA, western blot of the other tag; IP lysis buffer 25 mM Tris-HCl pH 7.4, 1% Nonidet P-40, 150 mM NaCl, 1 mM EDTA, 5% glycerol; 4 °C overnight.
The target of another experiment is HA-G3BP1 (UniProt Q13283). The experiment is described as above.
Experiment [1] concerns the target Flag-p110α (UniProt P42336). The description is as above.
The target in the next experiment is GST-p110α (UniProt P42336). Kind of experiment: pull-down; GST-labelled protein from E. coli BL21 (DE3) on glutathione-Sepharose beads overnight at 4 °C, His-tagged protein added for 4 h at 4 °C; immunoblot with anti-His antibody; both purified. (In general: Immunoblotting shows a protein as a band on a membrane.)
Experiment [2] has as its target Flag-p110α (UniProt P42336). Kind of experiment: co-IP; HEK293T cells transfected with Flag-p110α, with or without AS; Flag precipitates blotted for SG proteins; no additive in the lysis buffer (lanes 2 and 3).
Experiment [3] has as its target Flag-p110α (UniProt P42336). Kind of experiment: co-IP; as a5 with EE (2 mM EDTA, 2.5 mM EGTA) or MgCl2 (5 mM) in the lysis buffer, lanes 5 and 7.
Experiment [4] has as its target Flag-p110α (UniProt P42336). Description: condition: only with RNase A (40 μg/ml) in the lysis buffer; co-IP; as a5 with RNase A (40 μg/ml) in the lysis buffer (lane 4; for G3BP1 and PABP also lanes 6, 8 and 9 with EE and/or MgCl2); with EE the RPL4 and RPS6 signal was enhanced (lane 6).
Experiment [5] deals with endogenous p110α (HepG2) (human (endogenous in HepG2)) (UniProt P42336). Description: co-IP; endogenous proteins in HepG2 cells; IP with antibodies to either partner, western blot; IP lysis buffer, 4 °C overnight.
Experiment [6] deals with HA-G3BP1 (in HepG2) (UniProt Q13283). Description: co-IP; HepG2 cells transfected with HA-G3BP1, with or without Flag-p110α (or p110α knockdown), with or without AS (500 μM, 1 h); HA precipitates blotted for PABP, RPL4, RPS6; no RNase.
Experiment [7] shares this target. Kind of experiment: condition: only with RNase A (40 μg/ml) in the lysis buffer; co-IP; as a3 but with RNase A (40 μg/ml) in the lysis buffer.

In the case of “Flag-PRMT1 (from UniProt Q99873 1-371) (enzyme)”, the binding entry with HA-p85α is on record as “no binding”.

Consider Flag-p85α (from UniProt P27986 1-724), for which, in the experiment with HA-G3BP1, the binding result is given as “no binding”.

With HA-G3BP1 (from UniProt Q13283 1-466), the binding entry with Flag-p110α [1] is “binds”.

For the substance “HA-PRMT1 (from UniProt Q99873 1-371) (enzyme)”, the binding result with Flag-p110α [1] is on record as “binds”.

“His-PRMT1 (from UniProt Q99873 1-371) (enzyme)”: the binding result with GST-p110α is “binds”.

In the case of “endogenous G3BP1 (HEK293T) (from UniProt Q13283 1-466)”, the binding entry with Flag-p110α [2] is recorded as “binds”; with Flag-p110α [3] it was “binds”; with Flag-p110α [4], “no binding”.

As to “endogenous G3BP1 (HepG2) (from UniProt Q13283 1-466)”, in experiment [5], the binding entry is reported as “binds”.

With “endogenous PABP (HEK293T) (from UniProt P11940 1-636)”, the binding entry with Flag-p110α [2] is on record as “binds”; in the experiment with Flag-p110α [3], “binds”; with Flag-p110α [4] it was “no binding”.

Turning to “endogenous PABP (HepG2) (from UniProt P11940 1-636)”, the binding result with HA-G3BP1 (in HepG2) [6] is given as “binds”; with HA-G3BP1 (in HepG2) [7], “no binding”.

For the substance “endogenous PRMT1 (HepG2) (from UniProt Q99873 1-371) (enzyme)”, in [5], the binding result is on record as “binds”.
